{"source": "PubChem BioAssay AID1240", "about": "(Sanford-Burnham Center for Chemical Genomics, 2008)", "note": "In all, about 50,000 compounds went through this assay and about 800 (1.6%) showed an effect of 50% or more. This is one part of the list.", "data": [{"molecular_target": "Bcl-2-like protein 10 (Homo sapiens) (UniProt Q9HD36)", "sequence (Q9HD36 whole entry, looked up)": "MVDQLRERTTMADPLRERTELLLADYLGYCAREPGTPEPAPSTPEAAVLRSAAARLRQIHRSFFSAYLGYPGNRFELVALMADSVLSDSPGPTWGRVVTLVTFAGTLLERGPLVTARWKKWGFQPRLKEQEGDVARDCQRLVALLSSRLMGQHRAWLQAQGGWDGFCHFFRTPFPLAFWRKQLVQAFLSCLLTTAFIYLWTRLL", "assay": "TR3 peptide-Bcl-B binding displacers, biochemical primary FP assay, phenotype converters (AID 1240);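 note: 0% = Bcl-B with tracer peptide and DMSO and 100% = tracer peptide lacking Bcl-B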", "settings": "GST-Bcl-B / FITC-TR3 peptide fluorescence polarization; stronger effect = higher value; compound at 3.75 mg/L", "units": {"displacement": "%"}, "values": [{"smiles": "O=C(c1ccccc1F)N1CCN(c2ccc([N+](=O)[O-])c3ncccc23)CC1", "displacement": 12.1}, {"smiles": "Cc1cc(C2(c3cc(C)c(NC(=O)CN4CCCCC4)c(C)c3)CCCCC2)cc(C)c1NC(=O)CN1CCCCC1", "displacement": -8.8}, {"smiles": "O=C(NC1C2CC3CC(C2)CC1C3)c1cccc(I)c1", "note": "(stereo not drawn)", "displacement": 11.7}, {"smiles": "CC1CCN(c2cc(N3CCN(C(=O)c4ccc(F)c(F)c4)CC3)c([N+](=O)[O-])cc2F)CC1", "displacement": -13.7}, {"smiles": "COc1cccc(-n2c(C=C3C(=O)Nc4ccc(C)cc43)nc3ccccc3c2=O)c1", "displacement": 7.5}, {"smiles": "COc1ccc(CCNS(=O)(=O)c2ccc([N+](=O)[O-])cc2)cc1", "displacement": 5.7}, {"smiles": "CCOC(=O)C1=C(C)N=c2s/c(=C\\c3cccs3)c(=O)n2C1c1ccc(OCC)cc1", "note": "(stereo not drawn)", "displacement": 7.8}, {"smiles": "CCCC(=O)Nc1cc(-c2nc3ncccc3o2)ccc1C", "displacement": 4.5}, {"smiles": "O=C(NCC1COc2ccccc2O1)c1ccco1", "note": "(stereo not drawn)", "displacement": -7.3}, {"smiles": "O=C(CCN1C(=O)c2ccccc2C1=O)NCC1CCCO1", "note": "(stereo not drawn)", "displacement": 9.6}, {"smiles": "COc1cccc(-c2nc3sc(C)c(C)c3c(=O)[nH]2)c1O", "displacement": 28.7}, {"smiles": "O=C(CSc1nnc2n(Cc3ccccc3)c(=O)c3c4c(sc3n12)CCCC4)c1ccccc1", "displacement": -2.9}, {"smiles": "O=C(/C=C/c1ccc(Cl)cc1)Nc1cccc([N+](=O)[O-])c1", "displacement": -8.2}, {"smiles": "O=Cc1ccc(OCc2ccc(F)cc2)cc1", "displacement": 5.4}, {"smiles": "COc1ccc(C(=O)Nc2cccc(C(=O)Nc3nccs3)c2)cc1", "displacement": -9.6}, {"smiles": "CCOc1ccc(NC(=O)c2c(Cl)ccc(Cl)c2OC)cc1", "displacement": -5.3}, {"smiles": "NC(=O)N/N=C/c1ccc(-c2cccc(C(F)(F)F)c2)o1", "displacement": 3.1}, {"smiles": "O=C1OC(c2ccccc2F)=N/C1=C\\c1ccc(Br)cc1", "displacement": 9}, {"smiles": "C/C=C/C(=O)N1c2ccc(OC)cc2C(C)=CC1(C)C", "displacement": -6.5}, {"smiles": "CN(C)c1ccnc2sc3c(N(CCO)CCO)ncnc3c12", "displacement": -3.4}, {"smiles": "O=C(CSc1nnc(-c2cccc(F)c2)n1-c1ccccc1)Nc1ccc(Br)cc1", "displacement": 5.3}, {"smiles": "O=C(c1cc2ccccc2o1)N1CCC(c2ccccc2)C1", "note": "(stereo not drawn)", "displacement": 11.4}, {"smiles": "COc1ccc(OC)c(NC(=O)c2ccc(C)c(C)c2)c1", "displacement": 14.8}, {"smiles": "COC(=O)COc1ccc(C(=O)CSc2nc3cc(OC)ccc3n2C)cc1", "displacement": 1.1}, {"smiles": "CC1=NN(c2ccc(C)c(C)c2)C(=O)/C1=C\\c1ccc(N(C)C)cc1", "displacement": 11.4}, {"smiles": "O=C1c2cccc3cccc(c23)C(=O)N1c1ccc(Br)cn1", "displacement": 2.6}, {"smiles": "c1ccc2c(-c3nc4ccccc4o3)cccc2c1", "displacement": 2.1}, {"smiles": "CCOC(=O)c1c(NC(=O)CCCC(=O)O)sc2c1CCC(C(C)(C)C)C2", "note": "(stereo not drawn)", "displacement": 1.4}, {"smiles": "COc1cccc(-n2c(O)c(/C=C3\\C=c4ccccc4=N3)c(=O)[nH]c2=O)c1", "displacement": -0.4}, {"smiles": "COC(=O)c1c(NC(=O)CCC(=O)O)sc(C)c1-c1ccc(C)cc1", "displacement": -7.5}, {"smiles": "O=C1c2ccc(Oc3ccc([N+](=O)[O-])cc3)cc2C(=O)N1c1nc2ccccc2s1", "displacement": -8.9}, {"smiles": "CC(=O)COc1cc(C)cc2oc(=O)cc(-c3ccccc3)c12", "displacement": 9.1}, {"smiles": "COc1ccc2[nH]c3c(c2c1)CCC/C3=N\\N", "displacement": 1.8}, {"smiles": "O=C1NC(=O)N(c2ccc(Cl)cc2)C(=O)/C1=C\\c1ccc(-c2ccc(C(=O)O)c(Cl)c2)o1", "displacement": -7.8}, {"smiles": "COC(=O)c1ccc(C(=O)OC)c(NC(=O)/C=C/c2cccc([N+](=O)[O-])c2)c1", "displacement": -3.1}, {"smiles": "Cc1ccc(-n2cc(/C=c3\\sc4nc5cc(C)c(C)cc5n4c3=O)cn2)cc1C", "displacement": -8.9}, {"smiles": "O=C(O)c1ccc(N2C(=O)CC(SC(=NCCc3ccccc3)Nc3ccc(F)cc3)C2=O)cc1", "note": "(stereo not drawn)", "displacement": -3.5}, {"smiles": "COc1ccc(CNC(=O)COc2cccc(C)c2)cc1", "displacement": -16.4}, {"smiles": "O=C(O)C(Sc1nc2ccccc2s1)c1ccccc1", "note": "(stereo not drawn)", "displacement": -4.2}, {"smiles": "COc1ccc(NC(=O)/C=C2\\NC(C)(C)Cc3ccccc32)cc1", "displacement": -1.3}, {"smiles": "Cc1cccc2c1N(C(=O)CN1C(=O)c3ccccc3C1=O)C(C)(C)c1ssc(=S)c1-2", "displacement": -5}, {"smiles": "COc1ccc(CCNC(=S)NC(=O)c2ccccc2)cc1OC", "displacement": 19}, {"smiles": "Brc1ccccc1-c1nc(-c2cccnc2)no1", "displacement": -7.8}, {"smiles": "COc1ccc(C=C2NC(=S)N(c3ccccc3)C2=O)c(OC)c1", "displacement": 3.7}, {"smiles": "O=C(/C=C/c1ccccc1)OCCN=C1NS(=O)(=O)c2ccccc21", "displacement": 9.1}, {"smiles": "CCOC(=O)C1=C(C)N=c2s/c(=C\\c3ccc([N+](=O)[O-])o3)c(=O)n2C1c1ccc(C)cc1", "note": "(stereo not drawn)", "displacement": 12.6}, {"smiles": "O=C(Nc1ccccc1)c1ccc(-c2ccccc2)cc1", "displacement": 3.8}, {"smiles": "Fc1ccccc1C=NN1CCN(Cc2ccccc2Cl)CC1", "displacement": -6}, {"smiles": "CCC(=O)N1N=C(c2ccccc2)CC1c1ccc([N+](=O)[O-])cc1", "note": "(stereo not drawn)", "displacement": -13}, {"smiles": "COc1ccc(S(=O)(=O)Nc2ccc(C)c(Cl)c2)cc1OC", "displacement": 13.7}, {"smiles": "CCOC(=O)C1=C(N)Oc2ccc3ccccc3c2C1c1ccc(Cl)cc1", "note": "(stereo not drawn)", "displacement": -10.4}, {"smiles": "Cc1ccc(C(=O)Oc2ccc3c(-c4ccccc4)cc(=O)oc3c2)cc1", "displacement": 12.3}, {"smiles": "O=C(CN1C(=O)c2cccc3cccc(c23)C1=O)N1CCCC1", "displacement": 9.6}, {"smiles": "O=C(c1ccccc1Cl)N1CCc2ccccc21", "displacement": 17.9}, {"smiles": "O=C(c1ccco1)N1CCN(Cc2ccc(F)cc2)CC1", "displacement": -9.8}, {"smiles": "COc1ccc(-n2nc3cc(C)c(NC(=O)COc4ccc(C)c(C)c4)cc3n2)cc1", "displacement": 4.4}, {"smiles": "Cc1ccc(S(=O)(=O)N(CC(C)C)CC(C)C)cc1", "displacement": -2.4}, {"smiles": "O=C(NCCN1CCOCC1)c1cnn2c(C(F)(F)F)cc(-c3ccco3)nc12", "displacement": 0.3}, {"smiles": "CCN1C(=O)/C(=C\\c2cc(Br)cc([N+](=O)[O-])c2O)SC1=S", "displacement": -40.5}, {"smiles": "CC1=C(C(=O)Nc2ccc(C)cc2)C(c2ccc(C)cc2)NC(=O)N1", "note": "(stereo not drawn)", "displacement": -12.8}, {"smiles": "O=C(CCC1CCCC1)Nc1ccc(Br)cn1", "displacement": -4.6}, {"smiles": "CCOC(=O)c1oc2ccc(C=NCc3ccccc3)c(Cl)c2c1C", "displacement": -3.5}, {"smiles": "O=c1/c(=C/c2ccc([N+](=O)[O-])cc2)sc2nc3ccccc3n12", "displacement": 86.7}, {"smiles": "Clc1ccc(N2CCN(/N=C/c3ccccc3Cl)CC2)cc1", "displacement": -5.4}, {"smiles": "COc1ccc2c(c1)-c1c(sn(-c3cc(C)ccc3O)c1=S)C(C)(C)N2", "displacement": 5.1}, {"smiles": "Cc1oc(NC(=O)CCCC(=O)O)c(C#N)c1C", "displacement": 32.1}, {"smiles": "O=C(Cc1ccc(Br)cc1)Nc1cc(Cl)c(Cl)cc1Cl", "displacement": 15.1}, {"smiles": "CCCSc1nnc(NC(=O)c2cccc(Cl)c2)s1", "displacement": 9.8}, {"smiles": "O=C(Nc1cccc2ccccc12)C1(c2ccccc2)CCOCC1", "displacement": -4}, {"smiles": "COc1ccc(-c2cc(C(F)(F)F)n3nc(C(=O)N4CCN(C)CC4)cc3n2)cc1", "displacement": 3.1}, {"smiles": "CC(C)c1ccc(N2C(=O)NC(=O)/C(=C/c3ccc(F)cc3)C2=O)cc1", "displacement": -6.3}, {"smiles": "CC1=C(C(=O)OCCC#N)C(c2cccc([N+](=O)[O-])c2)NC(=O)N1", "note": "(stereo not drawn)", "displacement": 1.9}, {"smiles": "O=C(Nc1ccccc1C(=O)Nc1ccccn1)c1ccccc1Cl", "displacement": 4}, {"smiles": "CCCCOc1ccc(-c2ccc(C(N)=O)cc2)cc1", "displacement": -2.1}, {"smiles": "COc1ccccc1C(O)C(F)(F)F", "note": "(stereo not drawn)", "displacement": -6.7}, {"smiles": "COc1ccccc1/C=C1/SC(=S)N(CNc2ccc(C)c(Cl)c2)C1=O", "displacement": 13.2}, {"smiles": "O=C(COc1ccc(Cl)cc1Cl)N1CCC(Cc2ccccc2)CC1", "displacement": -9.3}, {"smiles": "Cc1ccc(-c2csc(/C(C#N)=C/c3ccsc3)n2)cc1", "displacement": -5.9}, {"smiles": "CCOc1ccc2c(c1)NC(C)(C)C1=C2C2(SC(C(=O)OC)=C(C(=O)OC)S2)C(C(=O)OC)=C(C(=O)OC)S1", "displacement": -8.5}, {"smiles": "Clc1ccc(CN2CCN(/N=C/c3cccnc3)CC2)cc1", "displacement": -2.4}, {"smiles": "COc1ccc(/C=N/NC(=O)CCn2c3ccccc3c3ccccc32)cc1", "displacement": 6.3}, {"smiles": "COc1ccc(C=NC2=NN(c3ccccc3)CC2)cc1", "displacement": 12.2}, {"smiles": "COCCCNC(=O)c1ccc(N(C)S(=O)(=O)c2ccccc2)cc1", "displacement": 4.4}, {"smiles": "COc1ccc(Cl)cc1/C=C(/C#N)C(=O)Nc1ccc(Cl)cc1", "displacement": -13.4}, {"smiles": "O=C(/C=C/c1ccc(F)cc1)NC1CC1", "displacement": 4.7}, {"smiles": "COc1cc2ccccc2cc1C(=O)Nc1sc2c(c1C(N)=O)CCCC2", "displacement": 14.4}, {"smiles": "O=C(Nc1ccc(NC(=O)c2cc3ccccc3o2)cc1)c1ccc(Br)cc1", "displacement": -3.4}, {"smiles": "CC1(C)Cc2c(sc3nc(NN)n(-c4ccccc4)c(=O)c23)CO1", "displacement": -36.5}, {"smiles": "Oc1ccc(Br)cc1CN1CCN(Cc2ccccn2)CC1", "displacement": 5.1}, {"smiles": "COc1ccc(C(=O)Nc2ccc(C)c([N+](=O)[O-])c2)cc1OC", "displacement": 1.2}, {"smiles": "CCc1c(C)sc(NC(=O)CCc2ccccc2)c1C(N)=O", "displacement": 11.5}, {"smiles": "COc1cccc2cc(C(=O)Nc3c(C)n(C)n(-c4ccccc4)c3=O)c(=O)oc12", "displacement": -4}, {"smiles": "Cc1ccccc1-c1cc(C(=O)O)c2ccccc2n1", "displacement": 2.3}, {"smiles": "C(=C\\c1nc(-c2cccnc2)no1)/c1ccccc1", "displacement": 6.6}, {"smiles": "O=C(/C=C/Nc1ccccc1F)c1ccccc1", "displacement": 8.2}, {"smiles": "Cc1ccc(S(=O)(=O)N2C(=O)CC[C@@H]2C(=O)N2CCn3c4c(c5cc(C)ccc53)CCCC42)cc1", "note": "(stereo partly drawn)", "displacement": 10.6}, {"smiles": "O=C(Nc1ccc(I)cc1Cl)c1ccc2c(c1)OCCO2", "displacement": -1.1}, {"smiles": "Cc1cc(C)nc(NC(=O)c2c(-c3c(Cl)cccc3Cl)noc2C)c1", "displacement": 5.8}, {"smiles": "COc1ccccc1OCCSc1nc2ccccc2n1CC(=O)O", "displacement": 5.6}, {"smiles": "CSc1nc2ccc(NC(=O)CSc3nc4ccccc4s3)cc2s1", "displacement": -4.3}, {"smiles": "COc1ccc(/C=N/NC(=O)c2[nH]c3ccc([N+](=O)[O-])cc3c2-c2ccccc2)cc1", "displacement": -1.5}, {"smiles": "Cc1cc(/C=C2\\C(=O)NC(=S)N(c3ccccc3F)C2=O)c(C)n1-c1cccnc1", "displacement": 10.3}, {"smiles": "Cc1c(C(=O)OC(C)C)sc(NC(=O)c2ccc([N+](=O)[O-])cc2Cl)c1C(=O)OC(C)C", "displacement": 8.2}, {"smiles": "COC(=O)c1ccc(C(=O)OC)c(NC(=O)/C=C/c2ccc(F)cc2)c1", "displacement": -4.8}, {"smiles": "Cc1c(C(=O)Nc2ccc(Nc3ccccc3)cc2)cccc1[N+](=O)[O-]", "displacement": -5.8}, {"smiles": "N/C(Cc1ccc(Cl)cc1)=N\\OC(=O)/C=C/c1ccccc1", "displacement": -2.9}, {"smiles": "O=C(c1ccc2c(c1)OCCO2)N1CCOCC1", "displacement": -3.4}, {"smiles": "Cc1ccc(S(=O)(=O)Nc2cccc(C)c2C)cc1[N+](=O)[O-]", "displacement": 14}]}]}
